The values below come from PubChem BioAssay AID488969 (Vanderbilt High Throughput Screening Facility, 2010).

The full ranking holds about 110,000 compounds; the median of “z-score” is about -0.1, and the highest 2% start at about 2. The list shows a part of the results. The source made the active and inactive calls.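 How the source made its calls: active means z-score in the third read window above 3 or below -3; inactive means the rest.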

The experiment concerns the target Metabotropic glutamate receptor 8 (Rattus norvegicus) (UniProt P70579). Put plainly: mGluR8 Gi/Go-coupled signaling modulation – cell-based, rat, thallium flux, HTS, primary screen (AID 488969). The settings on record: HEK293 rat mGluR8, GIRK (G protein-gated inwardly rectifying potassium channel) thallium flux, FluoZin2; at 10 µM; stronger effect = higher value; submaximal glutamate (EC20) added with thallium.
Chain of UniProt P70579 (P70579 whole entry, looked up): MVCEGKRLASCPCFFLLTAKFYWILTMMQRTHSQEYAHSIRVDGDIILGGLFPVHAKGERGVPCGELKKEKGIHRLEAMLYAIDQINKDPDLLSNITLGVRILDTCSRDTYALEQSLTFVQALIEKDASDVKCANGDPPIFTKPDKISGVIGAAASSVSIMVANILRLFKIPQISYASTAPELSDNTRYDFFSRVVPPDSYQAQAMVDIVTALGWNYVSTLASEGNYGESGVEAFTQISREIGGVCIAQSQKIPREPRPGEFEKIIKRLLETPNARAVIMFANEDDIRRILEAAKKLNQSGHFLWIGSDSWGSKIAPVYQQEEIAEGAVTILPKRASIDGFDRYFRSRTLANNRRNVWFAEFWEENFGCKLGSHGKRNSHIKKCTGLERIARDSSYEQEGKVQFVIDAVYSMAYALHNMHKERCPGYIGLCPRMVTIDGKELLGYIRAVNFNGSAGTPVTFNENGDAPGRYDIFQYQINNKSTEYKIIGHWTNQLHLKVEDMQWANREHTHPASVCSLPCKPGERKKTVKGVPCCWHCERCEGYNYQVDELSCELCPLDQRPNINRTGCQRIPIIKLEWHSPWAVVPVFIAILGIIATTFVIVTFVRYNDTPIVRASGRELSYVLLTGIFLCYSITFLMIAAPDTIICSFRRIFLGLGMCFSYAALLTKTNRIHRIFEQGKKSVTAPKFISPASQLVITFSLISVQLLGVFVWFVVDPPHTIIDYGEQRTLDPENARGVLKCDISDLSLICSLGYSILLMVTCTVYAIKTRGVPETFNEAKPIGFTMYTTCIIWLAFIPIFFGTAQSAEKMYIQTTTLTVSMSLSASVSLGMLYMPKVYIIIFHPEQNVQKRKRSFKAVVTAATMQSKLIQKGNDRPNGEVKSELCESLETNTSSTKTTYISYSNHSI
`CCOC(=O)COc1ccc2nsnc2c1` displayed a z-score of 0.229. As to `O=C1N/C(=C\c2ccc(N3CCOCC3)c(F)c2)C(=O)N1Cc1ccccc1`, the z-score is -0.434. `Cc1cccc(NC(=S)NC(=O)/C=C/c2ccco2)n1` displayed a z-score of 0.626.

Take `O=C(Nc1ccccc1)/C(=C/c1cccc(Br)c1)NC(=O)c1ccco1`: the z-score is -0.229. The result for `CN(C(=O)c1ccco1)c1nnc(C23CC4CC(CC(C4)C2)C3)s1` reads -0.39. Compound `CC(C)(C)C(=O)NCCn1ccc2ccccc21` came in with a z-score of 1.13. Take `O=C(c1ccco1)N1CCN(c2nc3ccccc3c(=O)n2-c2ccccc2)CC1`: the z-score was -0.455. In the case of `Cc1cc(NC(=O)CN2CCN(c3ccc(O)cc3)CC2)no1`, the z-score was -0.0506. With `CCN(CC)C(=O)c1ccc(C(=O)c2c(C)cc(C)cc2C)cc1`, the z-score is -0.267. As for `Nc1ccc(-n2c(N)c(C(=O)NCc3ccc4c(c3)OCO4)c3nc4ccccc4nc32)cc1`, the z-score was 1.52. As to `CC(=O)c1ccc(OCCCC(=O)NC2CCCc3ccccc32)cc1` (stereo not given), the z-score is -0.701. The same measure for `COc1ccc(CNC(=O)c2cccs2)cc1`: 0.0587; for `N#C/C(=C\c1ccc(N2CCOCC2)o1)c1nc2ccccc2[nH]1`: -1.83. For `CC(O)C(O)C(O)C(O)C1NCCS1` (stereo not given), the z-score was -0.129. `CCCCCCCCN1C(=O)N(C)C(N(O)C(=O)NC)C1(C)C` (stereo not given): the z-score worked out at 0.0757. The same measure for `COc1ccccc1NS(=O)(=O)c1cccc(C(=O)N/N=C/c2ccc3c(c2)OCCO3)c1`: -0.485; for `C=CCn1c(=O)c(C(=O)Nc2ccccc2C(=O)OCC)c(O)c2ccccc21`: -0.951. `CCC(=O)Nc1ccnc(-c2cccnc2)n1` gave a z-score of -0.434. The same measure for `O=S(=O)(Nc1ccc2ccccc2c1)c1ccccc1`: -0.825; for `CC(C)CCNC(=O)c1cccnc1Sc1ccccc1`: -0.0729; for `CCOC(=O)/C(=C/c1ccc(F)cc1)NC(C)=O`: -0.159. The same measure for `Cc1ccc(-c2nn(CC(=O)NCc3cc(-c4nn(C)c(=O)c5ccccc45)ccc3C)c(=O)c3ccccc23)cc1`: 0.00878. In turn, `Cc1ccc(C(=O)NCc2ccc(Cl)c(Cl)c2)o1` showed a z-score of 0.434.

For `COc1ccc(CN=Cc2[nH]c3ccc(Br)c(Cl)c3c2O)cc1`, the z-score stood at 0.105. `COc1ccc(CCNC2CC(=O)N(CCc3ccc(OC)c(OC)c3)C2=O)cc1OC` (stereo not given) displayed a z-score of -0.18. `COC(=O)c1ccc(CSc2n[nH]c(C)n2)o1` returned a z-score of -0.0591. Turning to `N#CC(c1cccc(C(F)(F)F)c1)(c1ncc(C(F)(F)F)cc1Cl)N1CCOCC1` (stereo not given), the z-score was -0.234.

Compound `COc1ccc(N2CCN(C(=O)Cc3ncc(C(F)(F)F)cc3Cl)CC2)cc1` gave a z-score of -0.362. The compound `Cc1cc(C(=O)O)c(S(C)(=O)=O)s1` returned a z-score of -0.174.

As for `COc1ccc2c(c1OC)C(=O)NC(C)=C(C(=O)OC(C)(C)C)C2O` (stereo not given), the z-score was -0.738. In the case of `NC(=O)CC[C@H](NC(=O)c1ccc(F)cc1)C(=O)OCC(=O)Nc1c(F)c(F)c(F)c(F)c1F`, the z-score came out at 0.134. In turn, `Cn1c(=O)n(C)c2cc([N+](=O)[O-])c(N3CCN(S(C)(=O)=O)CC3)cc21` returned a z-score of 0.0226.

The compound `CC1CCN(Cc2nc3c(c(=O)n(C)c(=O)n3C)n2CCc2ccccc2)CC1` returned a z-score of -0.572.

The compound `Brc1cnc(N2CCOCC2)nc1N1CCCCC1` yielded a z-score of 0.298.

In the case of `Cc1ccc2[nH]c3c(N4CCN(Cc5ccc6c(c5)OCO6)CC4)ncnc3c2c1`, the z-score was -0.43. Turning to `CCOc1ccccc1N1CCN(C(=O)c2cc[n+]([O-])cc2)CC1`, the z-score was 1.47. As for `Cc1ccc(CNc2oc(-c3cccs3)nc2C#N)cc1`, the z-score worked out at 0.993. Regarding `Cc1ccc(CSc2nc3c(c(=O)[nH]2)C(c2ccncc2)C2=C(CCCC2=O)N3)cc1` (stereo not given), the z-score is -0.78. As to `COc1ccc(-c2[nH]nc(-c3ccccc3)c2-c2nc3ccccc3[nH]2)cc1`, the z-score is -0.16. As to `Cc1cc(OCCCCN2C(=O)NC(C)(C)C2=O)cc(C)c1Cl`, the z-score worked out at 0.0491. Compound `c1ccc(Sc2ncnc3c2oc2ccccc23)cc1` had a z-score of -0.124. The same measure for `CCC(Sc1ccccn1)C(=O)Nc1nnc(C)s1` (stereo not given): -0.138; for `O=C(COC(=O)/C=C/c1nc2ccccc2s1)Nc1ccccc1Oc1ccccc1`: -0.284. Take `CNC(=S)N1N=C(c2ccc(OC)cc2)CC1c1ccc(N(C)C)cc1` (stereo not given): the z-score was -0.218. Compound `COc1ccccc1/C=c1\sc2nc(-c3cccs3)nn2c1=O` showed a z-score of -0.262. `COCCn1c(CN2CCC(Cc3ccccc3)CC2)nc2c1c(=O)n(C)c(=O)n2C` gave a z-score of -0.501.

`CCCCCCCSc1nsc(N)n1`: the z-score came to 0.546. Compound `O=C(NNc1c2ccccc2nc2ccccc12)c1cc2ccccc2cc1O` had a z-score of -0.234. In the case of `Cc1nnc(-c2cnn(-c3ccccc3)c2N)n1Cc1ccc(F)cc1`, the z-score amounted to 0.321.

In turn, `O=C(c1ccccc1NS(=O)(=O)c1ccc2c(c1)OCCO2)N1CCOCC1` had a z-score of -0.152. `O=C1NC(Cc2c[nH]c3ccccc23)C(=O)N1c1ccc(F)cc1` (stereo not given): the z-score was 0.0143.

The compound `Cc1ccc(S(=O)(=O)/N=C(/Nc2c(C)n(C)n(-c3ccccc3)c2=O)c2ccccc2)cc1` had a z-score of -0.00392. `Cn1c(N)c(C(=O)c2ccc(C#N)cc2)c(=O)n(C)c1=O` had a z-score of -0.206. In turn, `CC(C)CC(=O)NC(=S)NCc1ccccc1` yielded a z-score of -0.128. The same measure for `Cc1cc(C)cc(Oc2nc(C(F)(F)F)nc3ccccc23)c1`: -0.181; for `COc1cccc(Nc2ncccc2C(=O)NCc2ccccc2)c1`: -0.256. The result for `CCOC(=O)c1c(C)nc2c(c1C)c(=O)oc1ccccc12` reads -0.393. With `COc1cccc(OC)c1OCCCCN1CCCC1`, the z-score was -0.52. `COc1ccc(CN=CC2=C(O)CNC2=O)cc1OC`: the z-score worked out at 0.0947. In turn, `CC(C)(C)c1nc(SCC(=O)Nc2nc3c(s2)CCCC3)c2ccccc2n1` displayed a z-score of -0.185. Turning to `COc1cc(OC)cc(C(=O)N2CCN(C(=O)c3cccc(F)c3)CC2)c1`, the z-score was -0.152. `O=C(CCCCCn1c(=S)[nH]c2ccccc2c1=O)N1CCOCC1`: the z-score was -0.155.

In turn, `N#Cc1c(-n2cccc2/C=N/O)sc2c1CCCC2` yielded a z-score of -0.27. In turn, `CCOC(=O)N1CCC(NC(=O)CCC(=O)N2CC(C)Oc3ccccc32)CC1` (stereo not given) gave a z-score of -0.00303. Regarding `CCCCNC(=O)CSc1nc2ccc(NC(=O)CSc3nnc(N)s3)cc2s1`, the z-score is -0.425. The compound `CC(C)(C)C(=O)NNc1nc(-c2ccccc2)c2cc(Br)ccc2n1` came in with a z-score of 0.475. For `Cc1cccc(N2CCN(C(=O)c3ccc(Cl)c(S(=O)(=O)NCc4ccco4)c3)CC2)c1C`, the z-score was -0.0125. In turn, `Cn1c(=O)[nH]c(=O)c2c1nc(N1CCN(c3ccccc3)CC1)n2CCSc1ncccn1` showed a z-score of 0.0511.

Compound `COc1cc(C(=O)OCC(=O)c2c[nH]c3ccccc23)ccc1OCC(=O)N1CCOCC1` showed a z-score of 0.0746. The compound `Nn1c(COc2ccccc2)nnc1SC(F)F` returned a z-score of 0.416. In turn, `CCCC[n+]1ccn(-c2nc3ccccc3nc2[N-]S(=O)(=O)c2ccccc2)c1` had a z-score of -0.373.

In the case of `COc1cccc2cc(C(=O)N3CCN(C(=O)c4ccco4)CC3)c(=O)oc12`, the z-score turned out to be 0.0339. The same measure for `Nc1nnc(CC(=O)N/N=C/c2ccc(-c3ccccc3Cl)o2)s1`: -0.354; for `COc1ccc(OC)c(-c2nnc(SCC(=O)N3CCCc4ccccc43)o2)c1`: -0.66. The same measure for `CCOc1ccc(NC(=O)CSc2ccc(-c3ccccn3)nn2)cc1`: -0.0986; for `CN(C)CCSc1nnc2[nH]c3ccccc3c2n1`: 0.0211; for `COc1cccc(C(=O)Nc2cccc(-c3nnc(-c4ccco4)o3)c2)c1`: -1. The compound `CCOC(=O)N1CCC(NC(=O)c2ccc3nc4ccccc4c(=O)n3c2)CC1` displayed a z-score of -0.331. In the case of `O=C(c1cccs1)N1CCC(c2nc3c(nnn3Cc3ccccc3)c(=O)[nH]2)CC1`, the z-score was -0.092.

As to `CN(C)c1ccc(C=C2C(=O)OC(C)(C(C)(C)C)OC2=O)cc1` (stereo not given), the z-score turned out to be 1.05. Compound `CSC1=N/C(=C\c2ccccc2)C(=O)N1C` showed a z-score of -0.0166.

With `CCN1CCN(c2ccc(NC(=O)c3ccc4c(c3)[nH]c(=O)n4Cc3ccc(F)cc3)cc2)CC1`, the z-score turned out to be 0.0981. `CCOC(=O)c1cccc(-n2c(-c3ccc(OC)cc3)nc3nc4ccccc4nc32)c1` showed a z-score of -0.506. Compound `O=c1c2oc3ccccc3c2ncn1Cc1ccccc1Cl` gave a z-score of -0.23. In turn, `CC(C)(C)c1ccc(C(=O)NCc2nnc(SCC(=O)N3CCCc4ccccc43)n2-c2ccccc2)cc1` had a z-score of -0.167. In turn, `C/C(CCC(=O)O)=N/Nc1ccc([N+](=O)[O-])cc1[N+](=O)[O-]` showed a z-score of -0.315.

`Cc1cc2ccccn2c1C(=O)c1ccc(Cl)cc1`: the z-score was -0.0562. In turn, `CCOc1ccc(NS(=O)(=O)c2ccc3c(c2)CCN3C(=O)C2CCC2)cc1` showed a z-score of -0.102. The same measure for `Cc1ccc2c(c1)cc(CN(Cc1ccc3c(c1)OCO3)C(=O)c1ccccc1)c1nnnn12`: 0.399; for `CC(C)C(=O)c1cn(CC(=O)N2CCCc3ccccc32)c2ccccc12`: -0.649. The result for `N#Cc1ccc(N2CCN(c3ccc(F)cc3)CC2)cc1` reads -0.419. `Cn1c(=O)c2c(nc(SCC(=O)N3CCCc4ccccc43)n2C)n(C)c1=O` displayed a z-score of 0.0244. The compound `C=CCn1c(SCC(=O)O)nnc1-c1ccccc1` yielded a z-score of 0.236.

In turn, `Cc1ccccc1-c1nc(Cc2ccc(Cl)cc2)no1` displayed a z-score of -0.647.

Regarding `O=C(COc1ccccc1Cl)NC(=S)N1CCc2ccccc21`, the z-score was active: 12.1.

Compound `O=C(NC(=S)NNC(=O)c1ccc(Cl)cc1Cl)c1cccnc1` returned a z-score of -0.129. The same measure for `COc1cc(-c2nnc(COC(=O)CSc3cc(C)c4ccccc4n3)o2)cc(OC)c1OC`: -0.267; for `CSCCc1nc(SCC(=O)Nc2nnc(C)s2)[nH]c1C`: -0.0492; for `O=C(Cn1c(=O)n(Cc2ccccc2)c(=O)c2ccccc21)NCc1ccco1`: -1.05. Take `CN1C(=O)c2cccc(NCCCCCCN3C(=O)c4ccccc4C3=O)c2C1=O`: the z-score was -0.446. The result for `FC(F)(F)c1cccc(Sc2cc(C(F)(F)F)nc(-c3ccccn3)n2)c1` reads -0.203.

Take `Nc1c(Cl)ncnc1N/N=C/c1ccnc2ccccc12`: the z-score turned out to be 0.373. Compound `Cc1cc(C)c(C#N)c(SCC(=O)NC(C)(C)C)n1` had a z-score of -0.0199. The compound `CCOC(=O)c1cc(C#N)c(SC)nc1-c1ccccc1` yielded a z-score of -0.657.

Take `Cc1ccc(CCN2CC(C(=O)NCCCN3CCCCCC3)CC2=O)cc1` (stereo not given): the z-score is -0.36. `O=C(COc1ccc(S(=O)(=O)NCc2ccccc2)cc1)N1CCOCC1` yielded a z-score of -0.0335.

The compound `CCc1c(C)[nH]c2nc3ccccc3n2c1=O` had a z-score of -0.36.

`CCn1c(SCC(=O)NCc2ccccc2)nnc1-c1c[nH]c2ccccc12` came in with a z-score of 0.128. Turning to `CCCN(CCC)C(=O)CC(c1ccc(F)cc1)c1ccco1` (stereo not given), the z-score is -0.592.

Take `Cc1cc(Br)ccc1SCC(=O)OCC(=O)Nc1ccccc1C#N`: the z-score is -0.233.
